We go through 13 sequences from the supplement of paper PMC10441789.

The other results are listed elsewhere or left out. Antibody binding of pooled human sera (four to six donors per pool; dilution not stated) to peptides of the Trypanosoma cruzi antigen TSSA on microarrays. Quantile-normalised fluorescence in arbitrary units, mean of duplicate arrays; higher = more binding. No active / inactive call. The uninfected pools are read here as the healthy donors of the same country. The strongest signals lie near the top of the scale (about 60,000).

Holding throughout (experiment): antibody binding signal (normalised fluorescence) (arbitrary fluorescence units); higher = stronger serum antibody binding to peptide
Assay [1] relates to pooled sera of chronic Chagas disease patients, Bolivia. The procedure:
(§1)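 Microarray of 15-residue peptides over residues 30-55 of Trypanosoma cruzi TSSAII, each with 1 to 10 substitutions at naturally variable positions, probed with one serum pool per country.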

Assay [2] relates to pooled sera of chronic Chagas disease patients, Brazil. The protocol: as §1
In assay [3] the test system is pooled sera of chronic Chagas disease patients, Colombia. The protocol:
as §1

The test system of assay [4] is pooled sera of chronic Chagas disease patients, Mexico. The protocol:
as §1

The subject of assay [5] is pooled sera of chronic Chagas disease patients, USA. The procedure:
as §1

Assay [6] concerns pooled sera of uninfected people, Argentina. The procedure: as §1
The test system of assay [7] is pooled sera of uninfected people, Bolivia. The protocol: as §1
Assay [8] relates to pooled sera of uninfected people, Brazil. The protocol: as §1
In assay [9] the test system is pooled sera of uninfected people, Colombia. The protocol: as §1
In assay [10] the test system is pooled sera of uninfected people, Mexico. The procedure: as §1
Assay [11] relates to pooled sera of uninfected people, USA. The procedure: as §1

Regarding ENKPAAGGTPSPSGA, the antibody binding signal was 3440 in [1]; 983 in assay [2]; 1620 in [3]; 439 in assay [4]; 439 in assay [5]; 298 in [6]. Moreover, the antibody binding signal in [7] was found to be 681; in assay [8], 1020; in assay [9], 574; in assay [10], 179; in [11], 246.
On to KDNKTAAGETPSPSG, for which the antibody binding signal was 199 in assay [1]; 306 in assay [2]; 2110 in assay [3]; 265 in assay [4]; 1470 in assay [5]; 505 in [6]. For the same sequence, the antibody binding signal in assay [7] amounted to 282; in assay [8], 189; in assay [9], 262; in assay [10], 219; in assay [11], 1900.
For SGKDNKPATGETPSP, the antibody binding signal in assay [1] came out at 32000; in assay [2] it was 35300; in [3] it was 441; in [4], 390; in assay [5] it was 25600; in assay [6], 531. Also, the antibody binding signal was 835 in [7]; 268 in assay [8]; 285 in assay [9]; 1740 in [10]; 577 in [11].
As for PSGKEKKTATGETPS, the antibody binding signal in assay [1] is 3700; in assay [2] it was 6890; in [3], 4690; in assay [4], 5310; in [5], 8360; in assay [6], 480. Moreover, the antibody binding signal was 532 in [7]; 211 in assay [8]; 196 in assay [9]; 165 in assay [10]; 148 in [11].
On to PSGKENKTAAGGTPS, for which the antibody binding signal is 2280 in [1]; 10200 in [2]; 11600 in assay [3]; 9370 in assay [4]; 7820 in assay [5]; 5760 in [6]. Further, the antibody binding signal in [7] stood at 1810; in assay [8], 333; in assay [9] it was 440; in assay [10] it was 570; in assay [11], 170.
Consider DKKPATGEAPSPPGA, for which the antibody binding signal in assay [1] was found to be 40600; in assay [2], 45200; in assay [3], 315; in [4], 301; in assay [5], 40500; in assay [6], 882. Besides, the antibody binding signal in assay [7] came out at 543; in assay [8], 290; in assay [9], 246; in assay [10], 181; in [11] it was 143.
Regarding EKKPAAGGAPSQSGA, the antibody binding signal in [1] came out at 205; in [2], 405; in assay [3] it was 4530; in [4], 303; in assay [5], 368; in assay [6], 238. For the same sequence, the antibody binding signal in assay [7] was found to be 746; in assay [8] it was 589; in [9], 101; in assay [10] it was 131; in assay [11] it was 692.
In the case of EKKPAAGGTPSPSGA, the antibody binding signal was found to be 195 in [1]; 355 in assay [2]; 5350 in [3]; 300 in assay [4]; 1120 in assay [5]; 183 in assay [6]. The antibody binding signal is 613 in assay [7]; 2540 in assay [8]; 165 in assay [9]; 112 in assay [10]; 745 in assay [11].
Regarding TENKAAAGGAPSPSG, the antibody binding signal amounted to 509 in assay [1]; 1200 in assay [2]; 3880 in [3]; 461 in assay [4]; 712 in assay [5]; 299 in assay [6]. In addition, the antibody binding signal stood at 160 in [7]; 219 in [8]; 301 in [9]; 146 in [10]; 433 in assay [11].
On to TENKPAAGEAPSQSG, for which the antibody binding signal in assay [1] was determined as 17800; in assay [2] it was 29500; in [3], 310; in assay [4] it was 496; in assay [5], 15400; in [6] it was 171. Also, the antibody binding signal is 278 in assay [7]; 167 in assay [8]; 79.2 in assay [9]; 162 in [10]; 244 in assay [11].
In the case of DNKPAAGGTPSQSGA, the antibody binding signal in assay [1] came out at 625; in assay [2] it was 747; in [3] it was 1370; in [4], 309; in assay [5], 289; in assay [6] it was 217. Besides, the antibody binding signal is 556 in assay [7]; 1500 in assay [8]; 351 in assay [9]; 504 in assay [10]; 135 in assay [11].
Turning to GTEKKPATGEAPSQS, the antibody binding signal came out at 31700 in [1]; 50100 in [2]; 2250 in assay [3]; 1630 in [4]; 43400 in [5]; 978 in assay [6]. The antibody binding signal is 1570 in assay [7]; 1680 in assay [8]; 460 in assay [9]; 352 in [10]; 684 in assay [11].
With TSSTPPSGTENKTAA, the antibody binding signal turned out to be 48600 in [1]; 52100 in assay [2]; 411 in assay [3]; 4310 in [4]; 30100 in [5]; 7170 in [6]. Further, the antibody binding signal in [7] stood at 702; in assay [8] it was 575; in [9], 926; in assay [10] it was 596; in [11], 931.
